{"source": "PubChem BioAssay AID1347120", "about": "(National Center for Advancing Translational Sciences (NCATS), 2019)", "note": "“And” between values parts separate entries of the source, which are not always exact repeats. Equal entries are not always repeated. Among all 390,000 compounds or so, about 930 (0.24%) were called active. This list was built around the results that the source calls inconclusive (neither active nor inactive); the mix of calls is not that of the screen. Calls come from the whole dose curve; as a rule, active = well fitted activation curve with a large enough effect; inconclusive = small, poorly fitted or top-dose-only effect; inactive = no such curve, though single readings can be large or run the other way. A potency beside an inconclusive call is a rough fit, not a confirmed value. Potency is the fitted concentration of half-maximal effect; tags give direction and shape of the fitted curve."}
{"assay": "qHTS for Suppressors of FUS Proteinopathy: Primary screen using FUS-linked yeast assay; note: nearly all actives have a fitted effect of over 55% in size;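 for growth rescue (activation): plate controls were DMSO vehicle for no effect and reference control for full effect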", "conditions": "S. cerevisiae FUS-expressing, OD600, 24 h; Potency: growth rescue; growth rescue (activation): at 76.6 µM (top of the series)", "in_short": "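Cultures pregrown in 2.5% raffinose medium are shifted to minimal medium containing 2% galactose to express toxic FUS. Compounds are tested at several concentrations. After 24hr at 30C, growth is quantified at 600 nm absorbance.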"}
{"smiles": "Cc1ccc(Cl)cc1N1CCN(C(=O)c2noc3c2CCCC3)CC1", "growth rescue (activation)": "inactive: 41.6%"}
{"smiles": "CCOc1ccc(-n2c(SCC(=O)Nc3ccc(S(=O)(=O)Nc4nccs4)cc3)nnc2-c2ccc(C(C)(C)C)cc2)cc1", "Potency": "inconclusive: 31.6 µM [activator, partial curve, poor fit]"}
{"smiles": "CCc1cc(-c2nnn(CCC3COCCO3)c2CC)ccc1-c1cn(CCc2c[nH]c3ccccc23)nn1", "note": "(stereo not given)", "Potency": "inconclusive: 25.1 µM [activator, single point]"}
{"smiles": "O=C(NCC(=O)N1CCN(c2ccccc2O)CC1)c1ccc2c(c1)OCO2", "Potency": "inconclusive: 20 µM [activator, partial curve, poor fit]"}
{"smiles": "COc1cc(C2C(C(=O)Nc3ccccc3C)=C(C)Nc3nc(SCc4cc(C)ccc4C)nn32)ccc1O", "note": "(stereo not given)", "growth rescue (activation)": "inactive: 12%"}
{"smiles": "COc1cccc(CNC(=O)c2cc3c(c(-c4cccc(-c5cccc(C#N)c5)c4)n2)[C@H](CCO)N(S(=O)C(C)(C)C)C3)c1", "note": "(stereo not given in full)", "Potency": "active: 22.4 µM"}
{"smiles": "O=C1[C@H]2[C@@H](c3ccccc3)N[C@]3(CCCN(CC4CCCCC4)C3=O)[C@H]2C(=O)N1Cc1ccccc1", "Potency": "inconclusive: 28.2 µM [activator, single point]"}
{"smiles": "COC(=O)[C@@]12C[C@@H](CC(=O)NCc3ccccc3)C(=O)N(Cc3cccc4ccccc34)C1=CCC(C)(C)C2", "Potency": "inconclusive: 5.01 µM [activator, full curve, poor fit]"}
{"smiles": "Cc1ccc(C(=O)OCC(=O)N2CCC(Cc3ccccc3)CC2)cc1N", "Potency": "inconclusive: 11.2 µM [activator, partial curve]"}
{"smiles": "Cc1ccccc1Nc1nc(CSc2nnc(-c3ccoc3C)n2C)cs1", "Potency": "inconclusive: 44.7 µM [activator, partial curve, poor fit]"}
{"smiles": "COc1ccc(NS(=O)(=O)c2ccc3c(c2)[C@H]2C=CC[C@H]2[C@@H](c2ccc(C(=O)O)cc2)N3)cc1", "Potency": "inconclusive: 15.8 µM [activator, partial curve] and inconclusive: 25.1 µM [activator, partial curve, poor fit]"}
{"smiles": "COc1ccc(C)cc1-n1c(SCC(=O)Nc2cccc(C(=O)O)c2)nc2ccccc2c1=O", "Potency": "inconclusive: 28.2 µM [activator, single point]"}
{"smiles": "O=C(c1ccc(Cl)cc1)N1CCN(c2cc(=O)[nH]nc2-c2ccccc2)CC1", "Potency": "inconclusive: 31.6 µM [activator, partial curve, poor fit]"}
{"smiles": "CSc1nsc(/C=C/Nc2ccc(O)cc2C)c1C#N", "Potency": "inconclusive: 35.5 µM [activator, single point]"}
{"smiles": "COc1cc2c(C(=O)N3CCN(c4cccc(Cl)c4)CC3)cn(CC(C)C)c(=O)c2cc1OC", "Potency": "inconclusive: 39.8 µM [activator, partial curve, poor fit]"}
{"smiles": "Fc1ccccc1CSc1nc2ccccc2[nH]1", "growth rescue (activation)": "inactive: -2.57%"}
{"smiles": "CCN(Cc1ccc(NC(C)=O)cc1)CC1CCCN(CCc2cccc(OC)c2)C1", "note": "(stereo not given)", "Potency": "inconclusive: 5.62 µM [activator, single point]"}
{"smiles": "COC(=O)C1(CC2CC(c3cccc(Br)c3)=NO2)CCN(C(=O)OC(C)(C)C)CC1", "note": "(stereo not given)", "Potency": "inconclusive: 22.4 µM [activator, single point]"}
{"smiles": "Cc1cc(OCC(=O)Nc2ccccc2N2CCOCC2)c(C(C)C)cc1Cl", "Potency": "inconclusive: 35.5 µM [activator, partial curve, poor fit]"}
{"smiles": "CC(=O)c1ccc(NC(=O)c2ccc3nc(-c4ccco4)c(-c4ccco4)nc3c2)cc1", "Potency": "inconclusive: 20 µM [activator, partial curve, poor fit]"}
{"smiles": "Cc1nn(-c2ccccc2)c(N2CCCC2)c1/C=N/NC(=O)c1cc(-c2ccccc2)nc2ccccc12", "Potency": "inconclusive: 7.94 µM [activator, partial curve]"}
{"smiles": "C[C@@H]1CCCCO[C@@H](CN(C)S(=O)(=O)c2ccccc2)[C@@H](C)CN([C@H](C)CO)C(=O)c2cc(NS(=O)(=O)c3ccc(F)cc3)ccc2O1", "Potency": "active: 14.1 µM"}
{"smiles": "Cc1cc(/C=C(\\C#N)C(N)=O)c(C)n1-c1ccc(N2CCOCC2)c([N+](=O)[O-])c1", "growth rescue (activation)": "inactive: -3.88%"}
{"smiles": "Cc1ccccc1CN1CCCCC(NC(=O)Cc2cccs2)C1=O", "note": "(stereo not given)", "growth rescue (activation)": "inactive: -2.4%"}
{"smiles": "COc1ccc(/C(O)=C/C(=O)C(=O)Nc2c(C)n(C)n(-c3ccccc3)c2=O)cc1", "Potency": "active: 28.2 µM"}
{"smiles": "COc1ccc(-c2nn(-c3ccccc3)cc2C(=O)Nc2nccs2)cc1OC", "Potency": "inconclusive: 31.6 µM [activator, partial curve, poor fit]"}
{"smiles": "O=C1CC(Nc2ccc(N3CCOCC3)cc2)C(=O)N1c1cccc(C(F)(F)F)c1", "note": "(stereo not given)", "Potency": "inconclusive: 39.8 µM [activator, single point]"}
{"smiles": "CCCCCCNC(=O)O[C@H]1C[C@@H]2C(=O)N(c3ccccc3)C(=O)[C@@H]2[C@@H]2CN(S(=O)(=O)c3ccc(C)cc3)C[C@]12O", "Potency": "inconclusive: 35.5 µM [activator, single point]"}
{"smiles": "C/C(=N\\Nc1ccc([N+](=O)[O-])cc1)c1ccc(N2CCOCC2)cc1", "growth rescue (activation)": "inactive: -1.92%"}
{"smiles": "N#Cc1c(N2CCN(C(=O)c3ccccc3)CC2)nc(-c2ccccc2)c2c1CCCC2", "growth rescue (activation)": "inactive: 23.6%"}
{"smiles": "O=C(NCc1ccc(F)cc1)c1cc2cccc3c2n1CCS3", "growth rescue (activation)": "inactive: 34.6%"}
{"smiles": "O=C(O)c1ccc(Nc2nc(-c3ccccc3)cs2)cc1", "growth rescue (activation)": "inactive: -10.5%"}
{"smiles": "CCCCN1CCCc2cc(CN(CCCN3CCOCC3)C(=O)Nc3ccc(CC)cc3)ccc21", "growth rescue (activation)": "inactive: -22.4%"}
{"smiles": "CCOC(=O)c1cc(-c2ccccc2)n(CCC(=O)NCCc2cccc(C)c2)c1C", "Potency": "inconclusive: 28.2 µM [activator, single point]"}
{"smiles": "COCCN(Cc1ccccc1)C(=O)c1cccc(S(=O)(=O)N2CCN(c3ccccc3)CC2)c1", "Potency": "inconclusive: 31.6 µM [activator, partial curve, poor fit]"}
{"smiles": "Cc1ccccc1NC(=O)c1c(C)[nH]c(=S)c(C#N)c1-c1ccco1", "Potency": "inconclusive: 39.8 µM [activator, partial curve, poor fit]"}
{"smiles": "COc1ccc(-c2cc(C(=O)Nc3ccc(S(N)(=O)=O)cc3)c3ccccc3n2)cc1OC", "Potency": "inconclusive: 31.6 µM [activator, single point]"}
{"smiles": "CC(C)(C)NC(=O)C[C@H]1C[C@H](C(=O)N2CCCCC2)[C@@]2(C)c3[nH]c4ccc(Cl)cc4c3CCN2C1=O", "Potency": "inconclusive: 25.1 µM [activator, single point]"}
{"smiles": "CC1(C)CC[C@]2(C(=O)O)CC[C@]3(C)C(=CCC4[C@@]5(C)CC[C@H](O)C(C)(C)C5[C@H](O)C[C@]43C)[C@@H]2C1", "note": "(stereo not given in full)", "Potency": "inconclusive: 28.2 µM [activator, single point]"}
{"smiles": "Cc1ccc(C(=O)Nc2ccc(-c3nc4ccccc4o3)cc2)cc1Cl", "growth rescue (activation)": "inactive: -4.59%"}
{"smiles": "Brc1ccc(Nc2c3c(nc4nncn24)CCC3)cc1", "growth rescue (activation)": "inactive: -1.82%"}
{"smiles": "Cc1ccc(NC(=O)OC2CC3CC2[C@H]2CCCCN2[C@H]3Cc2ccccc2)cc1", "note": "(stereo not given in full)", "growth rescue (activation)": "inactive: -4.19%"}
{"smiles": "Cc1ccc(CNC2CCC23CCC(c2ccccc2)CC3)o1", "note": "(stereo not given)", "growth rescue (activation)": "inactive: -10.4%"}
{"smiles": "CCN1CCN(Cc2ccc(NC(=O)c3cc(NC(=O)C4=NN(c5ccccc5)C(=O)C4)cc(OC)c3)cc2C(F)(F)F)CC1", "Potency": "inconclusive: 31.6 µM [activator, single point] and inconclusive: 22.4 µM [activator, single point]"}
{"smiles": "Cc1ccc(S(=O)(=O)N2CCCC2C(=O)Nc2nc3ccccc3s2)cc1", "note": "(stereo not given)", "growth rescue (activation)": "inactive: 44.5%"}
{"smiles": "CCCN(CCC)C(=O)CSc1c2c(nc3ccc(Cl)cc13)CCCC2", "growth rescue (activation)": "inactive: 37%"}
{"smiles": "Cc1cccc(NC(=O)CCN2CCN(C/C=C/c3ccccc3)CC2)c1", "growth rescue (activation)": "inconclusive: 68.8% [activator]"}
{"smiles": "CCOC(=O)c1sc(N2C(=O)C(O)=C(C(=O)c3ccc(C)o3)C2c2cccc([N+](=O)[O-])c2)nc1C", "note": "(stereo not given)", "growth rescue (activation)": "inactive: 15.8%"}
{"smiles": "CCOC(=O)[C@]12CCC=C1N(CCC1=CCCCC1)C(=O)[C@H](CC(=O)NCCCCc1ccccc1)C2", "Potency": "inconclusive: 50.1 µM [activator, single point]"}
{"smiles": "COC(=O)CC1Oc2ccc(F)cc2-n2cc(-c3ccc(C)cc3)nc21", "note": "(stereo not given)", "growth rescue (activation)": "inactive: 30.8%"}
{"smiles": "C[n+]1c2n(c3ccccc31)N=C(c1ccccc1)CS2", "Potency": "inactive"}
{"smiles": "Cc1ccc(N(C)C(=O)c2ccc3c(Cl)c4c(nc3c2)CCC4)cc1C", "Potency": "inconclusive: 31.6 µM [activator, single point]"}
{"smiles": "Cc1c(C)n(CC(O)CN2C(=O)c3ccccc3S2(=O)=O)c2ccccc12", "note": "(stereo not given)", "Potency": "inconclusive: 25.1 µM [activator, partial curve, poor fit]"}
{"smiles": "CC(=O)c1cccc(-c2ccnc3c2CC(C(=O)Nc2ccc(F)c(Cl)c2)O3)c1", "note": "(stereo not given)", "Potency": "inconclusive: 31.6 µM [activator, single point]"}
{"smiles": "Cc1ccc(C(=O)NN(CCC(=O)NC(C)(C)C)C2=NS(=O)(=O)c3ccccc32)cc1", "Potency": "inconclusive: 5.01 µM [activator, full curve]"}
{"smiles": "O=C(N/N=C/c1ccc([N+](=O)[O-])s1)c1ccccc1", "Potency": "inconclusive: 28.2 µM [activator, partial curve, poor fit]"}
{"smiles": "CCCCCC(=O)N1C[C@H](n2cc(-c3ccc(F)cc3)nn2)[C@@H](O)C[C@@H]1c1ccc(C)cc1", "Potency": "inconclusive: 28.2 µM [activator, single point]"}
{"smiles": "C#CCOc1c(Cl)cc(/C=C2/C(=O)ON=C2C)cc1OC", "growth rescue (activation)": "inactive: 28%"}
{"smiles": "COc1ccc(N(C(=O)c2cnccn2)C(C(=O)NC2CCCCC2)c2cc(OC)c(OC)c(OC)c2)cc1", "note": "(stereo not given)", "growth rescue (activation)": "inactive: 20.5%"}
{"smiles": "COc1ccc(N2C(=O)CSC23C(=O)N(Cc2cccc(C(F)(F)F)c2)c2ccccc23)cc1", "note": "(stereo not given)", "Potency": "inconclusive: 28.2 µM [activator, partial curve, poor fit]"}
